Reference: PubChem BioAssay AID485281 (National Center for Advancing Translational Sciences (NCATS), 2010)
Screen size: about 350,000 compounds; about 260 (0.074%) were called active. Inconclusive results, whose numbers are uncertain, are shown with a selection of clear calls. Calls come from the whole dose curve; as a rule, active = well fitted inhibition curve with a large enough effect; inconclusive = small, poorly fitted or top-dose-only effect; inactive = no such curve, though single readings can be large or run the other way. Where the call is inconclusive, the potency comes from a doubtful curve fit.

What follows are compounds tested against Ferritin light chain (Equus caballus) (UniProt P02791) (assay: qHTS Assay for Identification of Novel General Anesthetics). Conditions: apoferritin/1-aminoanthracene competitive binding, fluorescence; series mostly up to 77.5 µM.
Outline: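 10 uM apoferritin + 50% sat. 1-AMA, PBS; cpd 10 min RT; Ex380/Em535 endpoint; normalized to free probe vs complex; 4-param Hill fit; propofol titration as pos. ctrl.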
Note: nearly all actives have a fitted effect of over 20% in size.
Potency is the fitted concentration of half-maximal effect; tags give direction and shape of the fitted curve.

Sequence of UniProt P02791 (P02791 whole entry, looked up): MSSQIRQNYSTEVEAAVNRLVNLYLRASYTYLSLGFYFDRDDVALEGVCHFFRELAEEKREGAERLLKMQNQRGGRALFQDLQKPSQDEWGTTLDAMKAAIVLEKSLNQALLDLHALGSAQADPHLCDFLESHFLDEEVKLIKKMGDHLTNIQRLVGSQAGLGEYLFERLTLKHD

SMILES | Potency
COC(=O)c1ccc(/C=N/OCC(=O)NC2CCCC(C)C2C)cc1 (stereo not given) | active: 11.2 µM
Cc1ccc(OCC(=O)OCC(=O)Nc2sccc2C(N)=O)cc1C | inconclusive: 22.4 µM [inhibitor, partial curve]
COC(=O)Nc1ccc(S(=O)(=O)NC2CCS(=O)(=O)C2)cc1 (stereo not given) | inactive
CC(=O)Nc1cc(NC(C)=O)c2nc(N)sc2c1 | inactive
O=C(Nc1ccccc1N1CCN(C(=O)c2ccc(Cl)cc2)CC1)c1ccc([N+](=O)[O-])o1 | inactive
O=C(Nc1ccc(Cl)cc1C(F)(F)F)c1cc(S(=O)(=O)NCc2ccccc2)ccc1F | inconclusive: 7.94 µM [inhibitor, full curve]
CC(=O)N(CCC(c1ccco1)C(C)C)Cc1ccc(Cl)cc1 (stereo not given) | inconclusive: 31.6 µM [inhibitor, single point]
Cc1ccc(CN2CCSc3sccc3C2=O)cc1 | inconclusive: 20 µM [inhibitor, partial curve]
COc1ccc2cc(C(c3nnnn3CCc3ccccc3)N3CCCC(C)C3)c(=O)[nH]c2c1 (stereo not given) | inconclusive: 28.2 µM [inhibitor, partial curve]
C/C(=C\c1ccccc1)C(=O)Nc1cc(C)on1 | inconclusive: 35.5 µM [inhibitor, single point]
COC(=O)c1c(-c2cccs2)csc1NC(=O)COc1ccc(C(C)C)cc1 | inactive
CN(C)c1ccc(CNn2cnnc2SCc2ccccc2F)cc1 | inconclusive: 44.7 µM [inhibitor, single point]
COc1ccccc1/C=C/C1C(C(=O)OCC(C)C)=C(C)N=C2SCCC(=O)N21 (stereo not given) | inconclusive: 4.47 µM [inhibitor, full curve, poor fit]
CCN(CC)C(=O)C1CCN(C(=O)c2cnn(-c3ccccc3)c2-n2cccc2)CC1 | inactive
O=C(CSc1nccn1C1CCCC1)Nc1ccccc1 | inactive
CCc1nnc(NC(=O)CSc2ncc(-c3ccccc3)n2CC)s1 | inconclusive: 44.7 µM [inhibitor, single point]
Cc1nn(-c2cc(N3CCCCCC3)ccc2[N+](=O)[O-])c(=O)c2ccccc12 | inconclusive: 4.47 µM [inhibitor, full curve]
CSc1ccc(CN2CCSCC2)cc1 | inconclusive: 20 µM [inhibitor, partial curve]
Cn1c(C2CCCCC2)nc2c1c(=O)[nH]c(=O)n2Cc1ccccc1 | inconclusive: 31.6 µM [inhibitor, partial curve]
CCOC(=O)C1CCCN(C2=NC(=O)/C(=C/c3ccc(N(C)C)cc3)S2)C1 (stereo not given) | inconclusive: 28.2 µM [inhibitor, partial curve]
CCOC(=O)c1cc(OC(=O)c2cc(Cl)ccc2OC)n(-c2ccccc2)n1 | inactive
Cn1nc(C(=O)Nc2cccc(C(F)(F)F)c2)c2c1-c1ccccc1S(=O)(=O)C2 | inconclusive: 5.62 µM [inhibitor, full curve]
Cc1c(Cl)cccc1NC(=O)c1cc(-c2ccccc2O)n[nH]1 | inconclusive: 17.8 µM [inhibitor, partial curve]
Cc1occc1C(=O)Nc1ccc2ccccc2c1 | inconclusive: 44.7 µM [inhibitor, single point]

SMILES | Potency
O=C1CCC/C(=N/Nc2ccc(Cl)cc2)C1 | inconclusive: 31.6 µM [inhibitor, partial curve]
CCc1ccc(Nc2cc(C(=O)NCCCN3CCOCC3)c3ccccc3n2)cc1 | inactive
FC(F)Oc1ccc(NC(=S)N2CCN(Cc3ccccc3)CC2)cc1 | inactive
CCN=C1NN=C(c2ccc(C)cc2)CS1 | inconclusive: 31.6 µM [inhibitor, partial curve]
O=C(Cc1ccccc1)NC(=S)Nc1ccc(OC(F)F)cc1 | inconclusive: 14.1 µM [inhibitor, partial curve]
Cc1ccc(-n2nc3c(=O)n(CC(=O)NC4CCCCC4)nc(C)c3c2C)cc1 | inconclusive: 3.16 µM [inhibitor, full curve]
CCOc1ccc(C2C(C#N)=C(N)Oc3cc(C)n(CCN(C)C)c(=O)c32)cc1OCC (stereo not given) | inactive
NC(=O)c1ccc2c(=O)c(O)c(-c3cc(Cl)c(N)c(Cl)c3)[nH]c2c1 | inactive
O=C1CC(C2CCCO2)C(=O)N1c1cccc(Cl)c1 (stereo not given) | inconclusive: 7.94 µM [inhibitor, partial curve]
O=C(CSc1ncccc1C(=O)O)NC12CC3CC(CC(C3)C1)C2 | inconclusive: 35.5 µM [inhibitor, single point]
Clc1ccccc1CSc1nnc(/C=C/c2ccccc2)o1 | inconclusive: 14.1 µM [inhibitor, partial curve]
COc1ccc(C(=O)Nc2ccc(N3CCCC3)cc2)cc1 | inconclusive: 39.8 µM [inhibitor, partial curve]
COc1cc(/C=N/Nc2cc(C)nc(NS(=O)(=O)c3ccccc3)n2)ccc1O | inactive
COc1ccc(C(=O)N2N=C(c3cccs3)CC2c2ccccc2O)cc1 (stereo not given) | inactive
Cc1ccnc(NC(c2cc(C)ccc2O)c2ccc3cccnc3c2O)c1 (stereo not given) | inconclusive: 8.91 µM [inhibitor, partial curve]
O=C(OCC(=O)N1CCCc2ccccc21)c1ccc(Br)o1 | inconclusive: 20 µM [inhibitor, partial curve]
Cc1ccc(C(=O)c2cc(C)sc2NC(=O)CN2CCN(C(=O)c3ccco3)CC2)cc1 | inconclusive: 14.1 µM [inhibitor, partial curve]
N#Cc1c(SCC(N)=O)nc(-c2ccccc2)c2c1CCCC2 | inconclusive: 25.1 µM [inhibitor, partial curve]
O=C(Cc1ccccc1)NCC(=O)N/N=C/c1ccc(Cl)cc1 | inconclusive: 5.01 µM [inhibitor, partial curve]
COc1ccccc1N1CCN(Cc2cc(COC(C)C)c3cccnc3c2O)CC1 | inconclusive: 1 µM [inhibitor, full curve]
O=C(CSCc1ccccc1Br)N/N=C/c1ccc2c(c1)OCO2 | inconclusive: 14.1 µM [inhibitor, partial curve]
O=C(CSc1nnc(-c2ccco2)o1)c1ccccc1 | inconclusive: 44.7 µM [inhibitor, partial curve]
CC(C)c1ccc(NC(=O)CSC2=Nc3ccccc3C3=NC(CC(=O)NCCc4ccccc4)C(=O)N23)cc1 (stereo not given) | inconclusive: 14.1 µM [inhibitor, partial curve, poor fit]
COc1ccc2c(Cl)c(C(=O)N/N=C3\CCCC(=O)C3)sc2c1 | inactive

SMILES | Potency
Cc1cc(=O)[nH]c(SCc2nc3ccccc3s2)n1 | inconclusive: 20 µM [inhibitor, partial curve]
COc1ccc(/C=N\NC(=O)COc2ccc(C(C)(C)C)cc2)cc1Cn1nc(C)cc1C | inconclusive: 2.24 µM [inhibitor, full curve]
FC(F)(F)c1cc(-c2ccco2)nc(NCc2ccccc2)n1 | inconclusive: 56.2 µM [inhibitor, single point]
Cc1cc2ccccn2c1C(=O)c1ccc(F)cc1 | inactive
COc1ccc2c(c1)Cc1sc(NC(=O)c3cccc(Cl)c3)nc1-2 | inconclusive: 28.2 µM [inhibitor, single point]
Cc1ccc(-c2csc(NC(=O)COC(=O)c3cccc(S(=O)(=O)N4CCOCC4)c3)n2)cc1 | inconclusive: 12.6 µM [inhibitor, partial curve]
CCN(CC)S(=O)(=O)c1ccc(OC)c(N)c1 | inconclusive: 28.2 µM [inhibitor, partial curve]
Cc1ccc(-c2onc(C)c2C)cc1S(=O)(=O)NC1CCC(C)CC1 (stereo not given) | inconclusive: 3.55 µM [inhibitor, partial curve]
CC(=O)c1ccc(OCc2cc(C(=O)N3CCC(c4ccncc4)CC3)no2)cc1 | inactive
CCCC(=O)c1ccc(N2CCCCC2)c(F)c1 | inconclusive: 28.2 µM [inhibitor, single point]
COc1ccc(Cl)cc1NC(=S)N1CCCCCC1 | inconclusive: 20 µM [inhibitor, partial curve]
CC(=O)Nc1nonc1-c1nnc(SCc2cccc(Br)c2)n1C | inconclusive: 7.08 µM [inhibitor, partial curve]
Cc1ccc(OCCN2C(=O)CSC2=O)cc1 | inconclusive: 31.6 µM [inhibitor, partial curve]
O=C1/C(=C/c2cccnc2)Oc2cc(OS(=O)(=O)c3ccccc3)ccc21 | inconclusive: 39.8 µM [inhibitor, single point]
Nc1nc(-c2cccc(Br)c2)cs1 | active: 31.6 µM
COC(=O)CCC(=O)Nc1cccc(Br)c1 | inconclusive: 25.1 µM [inhibitor, partial curve]
Cn1c(-c2ccccc2)c(C(=O)CCl)c2ccccc21 | inconclusive: 14.1 µM [inhibitor, partial curve]
Cc1cc(N)n2nc(-c3ccccc3)cc2n1 | inactive
Cc1cccc(Cc2c(C)nc3nc(SCC(=O)NC4CCCCC4)nn3c2C)c1 | inconclusive: 31.6 µM [inhibitor, partial curve]
COc1ccccc1CNC(=O)c1cnn(-c2ccc(F)cc2F)c1C1CCN(C(=O)OC(C)(C)C)CC1 | inconclusive: 15.8 µM [inhibitor, partial curve]
COc1ccc(C(=O)c2c(N)c(-c3nc(-c4ccc5c(c4)OCO5)cs3)c3ccccn23)cc1 | inconclusive: 10 µM [inhibitor, full curve]
COc1ccc(/C=N/NC(=O)CCCOc2ccc(Cl)cc2Cl)cc1 | inconclusive: 17.8 µM [inhibitor, partial curve]
